# In PubChem BioAssay AID624418 (National Center for Advancing Translational Sciences (NCATS), 2012):
# About 530 (0.13%) of roughly 410,000 compounds were called active. The shares of active, inactive and inconclusive entries below differ from those in the screen. Calls follow the shape of the dose curve; as a rule, active = well fitted inhibition curve with a large enough effect; inconclusive = small, poorly fitted or top-dose-only effect, or another doubt; inactive = no such curve, though single readings can be large or run the other way. A potency beside an inconclusive call is a rough fit, not a confirmed value.
# Assay: qHTS of GLP-1 Receptor Inverse Agonists: Cytotox Screen
# Details: HEK293 cAMP-luciferase reporter cells, luminescence, 24 h; series mostly up to 38.3 µM
# In short: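 Seeding density was 200 cells/uL; after overnight-length (12 h) culture, 23 nL compounds went on for 24 h at 37 °C. Readout used a luciferase detection reagent, luminescence taken after 12 min at room temperature.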
# Potency is read from the fitted curve at half-maximal effect.
row,SMILES,Potency
1,O=C(NN=Cc1ccc(N(CCCl)CCCl)cc1Cl)c1cccnc1,"inconclusive: 3.16 µM [inhibitor, partial curve]"
2,C=C1C(=O)OC2C1CCC(C)C1(O)C=CC(=O)C21C (stereo not drawn),"inconclusive: 11.2 µM [inhibitor, partial curve, poor fit]"
3,Cc1ccc(C(C)C)c(OCc2nn(CC(=O)c3ccc(OC(F)F)cc3)c3[n+]2CCCCC3)c1,"inconclusive: 28.2 µM [inhibitor, single point]"
4,Cc1ccc(NC2=C(NC(=O)c3ccccc3)C(=O)c3ccccc3C2=O)cc1Cl,"inconclusive: 11.2 µM [inhibitor, single point]"
5,S=C1CN=C(c2ccccc2)c2cc(Cl)ccc2N1,"inconclusive: 8.91 µM [inhibitor, partial curve]"
6,COc1cccc(NP(=O)(Oc2ccccc2Cl)Oc2ccccc2Cl)c1,"inconclusive: 28.2 µM [inhibitor, single point]"
7,NC(=S)N=Nc1c(O)n(CCCl)c2ccc(Br)cc12,"inconclusive: 0.891 µM [inhibitor, full curve, poor fit]"
8,CC(C)=CCSc1nnc([C@@H](N)Cc2c[nH]c3ccccc23)o1,"inconclusive: 6.31 µM [inhibitor, partial curve, poor fit]"
9,O=c1c2ccccc2nc(-c2ccco2)n1-c1ccccc1,inactive
10,COc1ccc2c(c1)C(c1ccc(N(CCCl)CCCl)cc1)=NCC2,inactive
11,Cc1ccc2nc(NNC(=O)c3ccc(S(=O)(=O)N4CCc5ccccc5C4)cc3)sc2c1,"inconclusive: 12.6 µM [inhibitor, single point]"
12,Oc1ccc(Cl)cc1Cc1cc(Cl)ccc1O,"inconclusive: 28.2 µM [inhibitor, single point]"
13,CN1C(=O)/C(=C\c2ccc(N3CCCCC3)o2)C(=O)NC1=S,inactive
14,CN(c1ccccc1)S(=O)(=O)c1ccc(C(=O)NCc2ccccc2CN2CCCC2)cc1,"inconclusive: 28.2 µM [inhibitor, single point]"
15,O=C1CC(=O)N(c2cccc(Cl)c2)C(=O)N1,inactive
16,Cc1cccc(N=C2c3cc([N+](=O)[O-])ccc3-c3c2cc([N+](=O)[O-])cc3[N+](=O)[O-])c1,"inconclusive: 11.2 µM [inhibitor, single point]"
17,COc1ccc(-c2[nH]ncc2N=Nc2cc(C)cc(C)c2)cc1,"inconclusive: 11.2 µM [inhibitor, partial curve, poor fit]"
18,O=C(NC(c1ccc(F)cc1)c1ccc2ccccc2n1)C1CCN(CCOc2ccc(Cl)cc2)CC1 (stereo not drawn),"inconclusive: 28.2 µM [inhibitor, single point]"
19,c1ccc(COc2ncnc3c2ncn3CCCN2CCN(Cc3cccc4ccccc34)CC2)cc1,"inconclusive: 10 µM [inhibitor, partial curve]"

row,SMILES,Potency
1,CC1(C)COC(/C=C/c2ccc([N+](=O)[O-])cc2)=N1,"inconclusive: 12.6 µM [inhibitor, partial curve, poor fit]"
2,c1ccc(-c2nccc(-c3ccco3)n2)nc1,"inconclusive: 12.6 µM [inhibitor, single point]"
3,COc1cccc(CN(C)C(=O)c2ccc(OCC(=O)Nc3cccc(C(F)(F)F)c3)c(OC)c2)c1,"inconclusive: 28.2 µM [inhibitor, single point]"
4,COc1ccc(CNCCC(c2ccc(F)cc2)c2ccc(OC(C)C)cc2)cc1OC (stereo not drawn),"inconclusive: 10 µM [inhibitor, single point]"
5,Cc1ccc(C(=O)OCC(=O)c2c[nH]c3ccccc23)cc1NC(=O)c1ccco1,"inconclusive: 28.2 µM [inhibitor, single point]"
6,CCNc1cc(N2CCN(C)CC2)ccc1[N+](=O)[O-],"inconclusive: 14.1 µM [inhibitor, single point]"
7,CCOC(=O)c1cc(C(O)(C(=O)OC)C(F)(F)F)c(/N=C/N(C)C)o1 (stereo not drawn),inactive
8,CCN1CCN(c2ccc(NC(=O)c3ccc4c(c3)[nH]c(=O)n4Cc3ccc(OC)cc3)cc2)CC1,"inconclusive: 10 µM [inhibitor, single point]"
9,Cc1cc(C)c(C)c(S(=O)(=O)N2CCC(C(=O)N(C)Cc3nc4ccccc4c(=O)[nH]3)CC2)c1C,"inconclusive: 10 µM [inhibitor, single point]"
10,C/C(=N\NC(=O)c1ccccc1OCCOc1ccccc1)c1ccccc1F,"inconclusive: 28.2 µM [inhibitor, single point]"
11,CCc1ccc(CN2CCCC(C(=O)c3sccc3C)C2)o1 (stereo not drawn),inactive
12,COc1ccc(CN2Cc3cnnn3-c3ccccc3C2C#N)cc1 (stereo not drawn),"inconclusive: 11.2 µM [inhibitor, partial curve, poor fit]"
13,CCN1CCN(c2ccc(S(=O)(=O)N3CCOCC3)cc2NC(=O)/C=C/c2ccc([N+](=O)[O-])cc2)CC1,"inconclusive: 12.6 µM [inhibitor, single point]"
14,CN(C)[C@@H]1C(=O)C(C(N)=O)=C(O)[C@@]2(O)C(=O)C3=C(O)c4c(O)cccc4[C@@](C)(O)C3[C@H](O)C12 (stereo partly drawn),inactive
15,C#CCOCCOCCOCCNc1nc(N2CCN(C(=O)CCCCCCCCCCNC(=O)[C@H](CCCCN)n3cc(C[C@@H](C)CC)nn3)CC2)nc(N2CCN(C(=O)CCCCCCCCCCNC(=O)[C@H](CCCN=C(N)N)n3cc(C[C@@H](C)CC)nn3)CC2)n1,"inconclusive: 22.4 µM [inhibitor, single point]"
16,COc1cccc(N2CCN(C(=O)CN(c3ccc(C)cc3)S(=O)(=O)c3c(C)n[nH]c3C)CC2)c1,"inconclusive: 28.2 µM [inhibitor, single point]"
17,c1ccc2oc(-c3[nH]ncc3CN3CCC(N4CCSCC4)CC3)cc2c1,"inconclusive: 7.08 µM [inhibitor, partial curve, poor fit]"
18,CCS(=O)(=O)c1ncc(Cl)c(C(=O)N(Cc2ccccc2)c2ccc(OC)cc2)n1,"inconclusive: 11.2 µM [inhibitor, single point]"
19,COc1ccc(NC(=O)c2c(Cl)n(C)c3ccccc23)cc1,"inconclusive: 5.01 µM [inhibitor, partial curve]"
